# Data taken from PubChem BioAssay AID624417 (National Center for Advancing Translational Sciences (NCATS), 2012).
# Values joined by “and” are separate entries in the source; they are usually repeats but may differ in a detail not shown here. Equal values may be shown once. The whole screen tested about 410,000 compounds, of which about 6,400 (1.6%) were called active. The inconclusive results got no clear call from the source; some entries with a clear call stand among them for comparison. Calls follow the shape of the dose curve; as a rule, active = well fitted inhibition curve with a large enough effect; inconclusive = small, poorly fitted or top-dose-only effect; inactive = no such curve, though single readings can be large or run the other way. Where the call is inconclusive, the potency comes from a doubtful curve fit.
# Target: Glucagon-like peptide 1 receptor (Homo sapiens) (UniProt P43220)
# Assay: qHTS of GLP-1 Receptor Inverse Agonists (Inhibition Mode); also: nearly all actives have a fitted effect of over 55% in size
# Conditions: HEK293 GLP-1R CRE-luciferase, luminescence, 24 h, GLP-1R form is constitutively active; activity change, negative = inhibition: at 38.3 µM (top of the series) unless noted
# Outline: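 Readout was luciferase luminescence, measured 12 min after detection reagent at room temperature. Beforehand, GLP-1R reporter HEK293 cells had sat 12 h, then received compounds for 24 hr at 37 deg C.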
# % is scaled to controls: 0 for no effect and ±100 for the full control effect; potency is read from the fitted curve at half-maximal effect; tags tell the direction and shape of the fitted curve.
# UniProt P43220, sequence (P43220 whole entry, looked up): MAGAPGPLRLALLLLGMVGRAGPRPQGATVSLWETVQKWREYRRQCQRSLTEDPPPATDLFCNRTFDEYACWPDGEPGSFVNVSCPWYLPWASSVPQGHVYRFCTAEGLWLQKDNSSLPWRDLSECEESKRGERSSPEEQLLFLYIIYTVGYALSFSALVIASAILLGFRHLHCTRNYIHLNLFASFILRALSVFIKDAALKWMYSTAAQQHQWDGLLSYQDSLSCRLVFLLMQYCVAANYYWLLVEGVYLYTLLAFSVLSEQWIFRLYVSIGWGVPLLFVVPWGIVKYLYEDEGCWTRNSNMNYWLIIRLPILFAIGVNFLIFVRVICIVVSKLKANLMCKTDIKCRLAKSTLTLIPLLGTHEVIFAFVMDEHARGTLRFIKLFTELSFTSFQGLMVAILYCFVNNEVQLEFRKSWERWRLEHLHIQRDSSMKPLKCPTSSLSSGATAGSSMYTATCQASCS
SMILES,Potency,"activity change, negative = inhibition"
O=C(CN1CCOc2ccccc21)N1CCN(c2cccc(Cl)c2)CC1,"inconclusive: 28.2 µM [inhibitor, single point]",–
O=C(c1cn(-c2ccccc2)nc1-c1cccs1)N1CCN(c2ccc(F)cc2)CC1,"inconclusive: 5.62 µM [inhibitor, full curve, poor fit]",–
O=C(NCc1ccc(F)cc1)C(=O)NCC(c1ccc2c(c1)OCO2)N1CCOCC1 (configuration not stated),inactive,–
Cc1cccc(NC(=S)Nc2cccc(C)n2)n1,"inconclusive: 3.16 µM [inhibitor, full curve, poor fit]",–
O=C(O)CSC(C(=O)Nc1ccc(Br)cc1)c1ccc(Cl)cc1 (configuration not stated),"inconclusive: 7.94 µM [inhibitor, partial curve]",–
Cc1cc(N2CCN(S(=O)(=O)c3ccc(C)c(C)c3)CC2)c2ccccc2n1,"inconclusive: 28.2 µM [inhibitor, single point]",–
Cc1cccc(-c2nc3nc(C)cc(NC(C)c4ccccc4)n3n2)c1 (configuration not stated),inactive,–
CC(=O)c1c(OC(=O)c2ccc(C)cc2)c2ccccc2n1C,"inconclusive: 4.47 µM [inhibitor, full curve]",–
CCOc1ccc(NC(=O)CN(C)C(=O)c2cc(-c3cccs3)nn2-c2ccccc2)cc1OCC,"inconclusive: 1 µM [inhibitor, full curve, poor fit]",–
COc1ccc(C2N=C(c3ccccc3)NO2)cc1OC (configuration not stated),"inconclusive: 12.6 µM [inhibitor, single point]",–
COc1ccc(N(CCC(=O)NCCc2ccccc2)S(=O)(=O)c2ccc(C)cc2C)cc1,"inconclusive: 11.2 µM [inhibitor, partial curve, poor fit]",–
Cc1ccc(NC(=O)C(NS(=O)(=O)c2ccc3c(c2)CCC(=O)N3)c2ccccc2)cc1C (configuration not stated),inactive,–
O=C1CS/C(=N/N=C/c2ccncc2)N1,inactive,–
CCOC(=O)C1CCN(CCC(=O)Nc2ccc(Br)c(C)c2)CC1,"inconclusive: 25.1 µM [inhibitor, partial curve, poor fit] and inconclusive: 28.2 µM [inhibitor, single point]",–
O=C(CSc1nc(=O)[nH]c2c1CCCC2)Nc1ccccc1C(F)(F)F,inactive,–
C/C(=N\NS(=O)(=O)c1ccc(C)c([N+](=O)[O-])c1)c1ccc2c(c1)OCO2,inactive,–
Cc1ccc(NC(=O)CN(C)C(=O)C(c2ccccc2)c2ccccc2)cc1,"inconclusive: 12.6 µM [inhibitor, single point]",–
COC(=O)C1=C(C)N(Cc2ccccc2)C(=S)N[C@H]1c1cccc(F)c1,"inconclusive: 31.6 µM [inhibitor, partial curve, poor fit]",–
O=C(NCc1nc2ccccc2[nH]1)c1cccc(S(=O)(=O)N2CCCCC2)c1,"inconclusive: 7.94 µM [inhibitor, partial curve, poor fit]",–
Cc1ccc(S(=O)(=O)CCC(=O)OCc2cc(C)ccc2C)cc1,"inconclusive: 10 µM [inhibitor, partial curve, poor fit]",–
CCN(CC)c1ccc(C(=O)O)cc1,inactive,–

SMILES,Potency,"activity change, negative = inhibition"
Cc1ccc(Cl)cc1NC(=O)Nc1cccs1,"inconclusive: 14.1 µM [inhibitor, single point]",–
COc1cccc(C2=NOC(C(=O)Nc3ccccc3SC)C2)c1 (configuration not stated),"inconclusive: 28.2 µM [inhibitor, single point]",–
Cc1cccc(C)c1N(Cc1ccccc1F)S(C)(=O)=O,"inconclusive: 15.8 µM [inhibitor, partial curve, poor fit]",–
Cc1cc(NC(=O)COC(=O)[C@H](Cc2ccccc2)NC(=O)c2ccco2)no1,inactive,–
CC(C)(C)c1ccc(S(=O)(=O)N2C=CC(C(F)(F)F)=NCC2)cc1,"inconclusive: 11.2 µM [inhibitor, partial curve, poor fit]",–
O=C(NCC(c1ccc(F)cc1)N1CCOCC1)c1nn(-c2ccccc2)c(=O)c2ccccc12 (configuration not stated),inactive,–
CC(C)(C)c1ccc(OCCCn2ccnc2)cc1,"inconclusive: 28.2 µM [inhibitor, single point]",–
COc1ccc(CNC(=O)CN(C)Cc2ccc(SC)cc2)cc1,"inconclusive: 10 µM [inhibitor, partial curve, poor fit]",–
Fc1ccccc1-c1nc(N2CCCCC2)c2ccccc2n1,"inconclusive: 28.2 µM [inhibitor, single point]",–
COc1ccccc1N1CC(C(=O)OC(C)C(=O)N2CCCc3ccccc32)CC1=O (configuration not stated),inactive,–
Cc1nc(NC(=O)Nc2ccc(Cl)cc2)sc1C,inactive,–
O=C(NCCCn1ccnc1)c1ccc(-c2cccc(C(F)(F)F)c2)o1,"inconclusive: 11.2 µM [inhibitor, partial curve, poor fit]",–
CC(=O)Nc1ccc(NC(=O)COC(=O)c2ccc(S(=O)(=O)NCc3ccco3)cc2)cc1,inactive,–
Cc1c(Cl)cccc1NC(=O)CSc1nc(=O)n(Cc2ccccn2)c2c1CCC2,inactive,–
CC1Cc2ccccc2N1C(=O)C12CCC(C)(C(=O)C1)C2(C)C (configuration not stated),"inconclusive: 14.1 µM [inhibitor, partial curve, poor fit]",–
Cc1ccc(-n2c(N)c(C(=O)Nc3ccccc3F)sc2=S)cc1C,"inconclusive: 10 µM [inhibitor, single point]",–
CC1CN(CC(=O)Nc2nc(-c3ccc(Cl)cc3)cs2)CC(C)O1 (configuration not stated),"inconclusive: 28.2 µM [inhibitor, single point]",–
Cc1ccccc1-c1ccc(CN2C(C(C)C)C(=O)N(Cc3cn(CCC4OCCO4)nn3)CCS2(=O)=O)cc1 (configuration not stated),"inconclusive: 10 µM [inhibitor, partial curve, poor fit]",–
COc1ccc(NC(=O)CC2(Cc3ccccc3)CCOC(C)(C)C2)cc1 (configuration not stated),"inconclusive: 20 µM [inhibitor, partial curve, poor fit]",–
Cc1cc(C(=O)N/N=C/c2cc(Br)cc([N+](=O)[O-])c2O)c2ccccc2n1,"inconclusive: 28.2 µM [inhibitor, single point]",–
CC1=C(C(=O)Nc2ccc(CC(=O)NCc3ccccc3C)cc2)SCCO1,"inconclusive: 7.94 µM [inhibitor, partial curve]",–

SMILES,Potency,"activity change, negative = inhibition"
COc1ccc(N(CC(=O)N2CCN(c3cccc(C)c3C)CC2)S(=O)(=O)c2c(C)noc2C)cc1,"inconclusive: 11.2 µM [inhibitor, partial curve, poor fit]",–
Cc1cc2cc(CN(CCN(C)C)C(=S)NCc3ccco3)c(=O)[nH]c2cc1C,"inconclusive: 11.2 µM [inhibitor, partial curve, poor fit]",–
Cc1c(C(=O)Oc2cccc3ccccc23)cnn1-c1ccccc1,"inconclusive: 6.31 µM [inhibitor, partial curve, poor fit]",–
O=C1N[C@@H](c2ccccc2)COC(=O)[C@H](Cc2ccc(F)cc2)CC/C=C/C[C@H]1CC(=O)N(CCO)Cc1ccccc1,"inconclusive: 28.2 µM [inhibitor, single point]",–
O=C(Nc1cccc(C(F)(F)F)c1)C1CCCN1S(=O)(=O)c1cccc2cccnc12 (configuration not stated),"inconclusive: 28.2 µM [inhibitor, single point]",–
CCC(Cc1ccccc1)NS(=O)(=O)c1ccc2c(c1)NC(=O)CO2 (configuration not stated),"inconclusive: 11.2 µM [inhibitor, partial curve, poor fit]",–
CCN(CC)C(=O)CSc1nc(-c2cccs2)cc(-c2cccs2)c1C#N,"inconclusive: 11.2 µM [inhibitor, single point]",–
O=C(N1CCCCC1)C12CC3CC(CC(C3)C1)C2,"inconclusive: 28.2 µM [inhibitor, single point]",–
CCCC(=O)OCCNc1cc(Sc2nccn2C)c2nonc2c1[N+](=O)[O-],"inconclusive: 28.2 µM [inhibitor, single point]",–
Cc1nn2c(=O)cc(COC(=O)c3cccc(NC(=O)c4cccs4)c3)nc2s1,"inconclusive: 11.2 µM [inhibitor, partial curve, poor fit]",–
COc1ccc2[nH]c(CN3CCC(CO)(CCOc4ccccc4)CC3)c(C)c2c1,"inconclusive: 8.91 µM [inhibitor, partial curve, poor fit]",–
CCOc1ccc(NS(=O)(=O)c2ccc3[nH]c4c(c3c2)CCCC4)cc1,"inconclusive: 12.6 µM [inhibitor, single point]",–
COc1ccc(CC(=O)NC(=S)Nc2ccc(S(=O)(=O)NC(C)(C)C)cc2)cc1,"inconclusive: 12.6 µM [inhibitor, partial curve, poor fit]",–
Cc1cc(C(=O)COC(=O)c2ccc[nH]c2=O)c(C)n1-c1ccc(F)cc1,"inconclusive: 22.4 µM [inhibitor, single point]",–
Cc1cccnc1Nc1nc(-c2ccc(O)c(O)c2)cs1,inactive,–
O=C(Nc1ccccc1)C1=C[C@@H](c2ccccc2)C[C@@H](OCc2ccc(CO)cc2)O1,"inconclusive: 28.2 µM [inhibitor, single point]",–
CCOC(=O)c1c(NC(C)=O)sc2c(OCC(O)CNC(C)(C)C)c(Br)ccc12 (configuration not stated),"inconclusive: 28.2 µM [inhibitor, single point]",–
Cc1cccc(C)c1OCC(O)CNC(C)c1ccccc1 (configuration not stated),–,inconclusive: -76.5% [inhibitor]
CSc1nc2ccccc2n1CC(=O)Nc1cc(C(F)(F)F)ccc1N1CCOCC1,"inconclusive: 28.2 µM [inhibitor, single point]",–
Cc1cc2nc(-c3cccc(Cl)c3)c(Cc3cccc(Cl)c3)n2c(C)c1Br,"inconclusive: 11.2 µM [inhibitor, single point]",–
